Out of some 360,000 compounds screened, about 520 (0.14%) were called active. Inconclusive results, whose numbers are uncertain, are shown with a selection of clear calls. Calls come from the whole dose curve; as a rule, active = well fitted inhibition curve with a large enough effect; inconclusive = small, poorly fitted or top-dose-only effect; inactive = no such curve, though single readings can be large or run the other way. Potencies of inconclusive entries are left out as doubtful fits.
Biological target: Rap guanine nucleotide exchange factor 3 (Homo sapiens) (UniProt O95398)
Assay: qHTS for Antagonist of cAMP-regulated guanine nucleotide exchange factor 3 (EPAC1): primary screen; note: nearly all actives have a fitted effect of over 50% in size
Conditions: EPAC1 GEF assay, Rap1b-BODIPY-GDP exchange fluorescence; series mostly up to 115 µM
Potency is the fitted concentration of half-maximal effect; tags give direction and shape of the fitted curve.

Sequence of UniProt O95398 (O95398 whole entry, looked up): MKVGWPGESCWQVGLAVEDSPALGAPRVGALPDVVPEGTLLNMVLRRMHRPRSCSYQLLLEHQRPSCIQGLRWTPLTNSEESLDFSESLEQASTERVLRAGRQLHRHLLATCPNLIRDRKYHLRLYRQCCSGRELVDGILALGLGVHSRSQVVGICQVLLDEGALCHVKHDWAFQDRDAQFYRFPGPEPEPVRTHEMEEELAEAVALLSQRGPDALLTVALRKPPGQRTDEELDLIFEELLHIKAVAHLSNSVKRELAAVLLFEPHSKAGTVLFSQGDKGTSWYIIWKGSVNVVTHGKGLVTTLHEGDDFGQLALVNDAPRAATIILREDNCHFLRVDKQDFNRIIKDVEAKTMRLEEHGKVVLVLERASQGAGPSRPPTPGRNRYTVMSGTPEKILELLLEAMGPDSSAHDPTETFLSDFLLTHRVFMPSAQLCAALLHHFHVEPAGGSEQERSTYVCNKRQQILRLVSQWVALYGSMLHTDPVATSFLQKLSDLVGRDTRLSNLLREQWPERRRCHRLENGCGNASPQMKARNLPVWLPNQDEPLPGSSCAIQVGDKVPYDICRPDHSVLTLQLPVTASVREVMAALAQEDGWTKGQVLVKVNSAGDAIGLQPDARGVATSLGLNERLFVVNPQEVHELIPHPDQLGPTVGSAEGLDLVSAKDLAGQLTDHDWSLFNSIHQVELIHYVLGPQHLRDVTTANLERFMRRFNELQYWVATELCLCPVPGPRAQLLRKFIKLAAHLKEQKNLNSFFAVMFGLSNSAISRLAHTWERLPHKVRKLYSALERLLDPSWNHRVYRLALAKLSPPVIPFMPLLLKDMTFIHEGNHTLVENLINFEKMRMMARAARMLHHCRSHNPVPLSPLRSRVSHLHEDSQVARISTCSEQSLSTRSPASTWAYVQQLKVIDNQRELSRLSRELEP

With Cc1cc2[nH]c(=O)c(=O)[nH]c2cc1S(=O)(=O)NC1CCC(C)CC1 (stereo not drawn) as the molecule, how does the Potency read?
The Potency was inconclusive [inhibitor, partial curve].

Cc1cccc(NC(=O)CSc2nc3ccccc3nc2N2CCCCC2)c1 was tested. Which Potency did it give?
The Potency was inconclusive [inhibitor, partial curve].

Which Potency does the source give for Cc1cc(-c2nnc(SCC(=O)Nc3ccc(S(N)(=O)=O)cc3)n2N)n[nH]1 here?
Its Potency is inconclusive [inhibitor, full curve, poor fit].

For CCn1nc(C)c(CNC(=O)c2cc(COc3ccc(C)nc3)on2)c1C, which Potency is on record?
The Potency was inconclusive [inhibitor, full curve, poor fit].

How did the Potency turn out when O=C(NC12CC3CC(CC(C3)C1)C2)c1cncc(Br)c1 was run?
The Potency was “inactive”.

With O=C(COC(=O)c1cc([N+](=O)[O-])ccc1N1CCCC1)Nc1ccccc1OC(F)F as the molecule, how does the Potency read?
The Potency was inconclusive [inhibitor, full curve, poor fit].

How did the Potency turn out when O=C(c1ccncc1)N1N=C(c2ccc(Br)cc2)CC1c1ccccc1O (stereo not drawn) was run?
Its Potency is inconclusive [inhibitor, single point].

How did the Potency turn out when O=C(O)Cc1sc(N/N=C\c2ccccc2)nc1-c1ccccc1 was run?
The Potency was inconclusive [inhibitor, full curve].

Which Potency does the source give for C[C@H](NC(=O)c1nc[nH]c1C(=O)N[C@@H](Cc1ccccc1)C(=O)OC(C)(C)C)C(=O)OC(C)(C)C here?
The Potency was inconclusive [inhibitor, partial curve, poor fit].

C[C@H]1CN([C@@H](C)CO)S(=O)(=O)c2ccc(Br)cc2O[C@H]1CN(C)C(=O)CN(C)C was tested. Which Potency did it give?
Its Potency is “inactive”.

With O=C(CC1C(=O)NCCN1Cc1ccc(Cl)c(F)c1)NCCc1cccnc1 (stereo not drawn) as the molecule, how does the Potency read?
Its Potency is inconclusive [inhibitor, single point].

For O=[N+]([O-])c1ccc(N2CCN(CCO)CC2)c2ncccc12, which Potency is on record?
Its Potency is inconclusive [inhibitor, single point].

Which Potency does the source give for COc1ccc(OC)c(C(=O)c2coc3cc(Br)c(O)c(Br)c23)c1 here?
Its Potency is inconclusive [inhibitor, single point].

Oc1ccc(NCc2cccs2)cc1 was tested. Which Potency did it give?
Its Potency is active: 56.2 µM.

How did the Potency turn out when Cc1ccc(Nc2n[nH]c(=S)s2)cc1F was run?
The Potency was “inactive”.

With CCOc1ccc(S(=O)(=O)Nc2c(C)n(C)n(-c3ccccc3)c2=O)cc1 as the molecule, how does the Potency read?
Its Potency is “inactive”.

Which Potency does the source give for COc1ccc([N+](=O)[O-])cc1NC(=O)C(C)OC(=O)/C=C/c1ccco1 (stereo not drawn) here?
Its Potency is inconclusive [inhibitor, partial curve].

For O=C(CN1C(=O)c2ccccc2C1=O)Nc1cccc2cccnc12, which Potency is on record?
The Potency was “inactive”.

How did the Potency turn out when CCCCCn1c(NC(=O)c2ccco2)c(S(=O)(=O)c2ccc(C)cc2)c2nc3ccccc3nc21 was run?
Its Potency is inconclusive [inhibitor, partial curve].

For Cc1cccc(NC(=O)CCNS(=O)(=O)c2cc(Br)cnc2N)c1C, which Potency is on record?
Its Potency is inconclusive [inhibitor, full curve, poor fit].

With CC1=Nc2ccccc2/C1=C/c1sc(=N)n(-c2nccs2)c1O as the molecule, how does the Potency read?
The Potency was inconclusive [inhibitor, partial curve].

For COC(=O)c1cc(=O)n2c(-c3ccc(OC)cc3)csc2n1, which Potency is on record?
Its Potency is inconclusive [inhibitor, single point].

With O=C(Nc1nc(-c2cccs2)cs1)c1ccco1 as the molecule, how does the Potency read?
The Potency was inconclusive [inhibitor, single point].

Which Potency does the source give for Nc1ncc(-c2ccc(-c3ccccc3)cc2F)cc1-c1ccccc1F here?
Its Potency is “inactive”.

For O=C(N/C=C/c1ccco1)NCc1ccccc1, which Potency is on record?
The Potency was inconclusive [inhibitor, partial curve, poor fit].

CC(=O)NC(c1ccccc1)c1cc([N+](=O)[O-])c2cccnc2c1O (stereo not drawn) was tested. Which Potency did it give?
The Potency was inconclusive [inhibitor, single point].

For Cc1cccc(-n2c(SCC(N)=O)nc3c(c2=O)C2(CCCC2)Cc2ccccc2-3)c1, which Potency is on record?
Its Potency is inconclusive [inhibitor, single point].

With Nc1ccc(N)c(C(=O)O)c1 as the molecule, how does the Potency read?
Its Potency is inconclusive [inhibitor, single point].

COC(=O)c1cc(Br)c(=O)n(CCc2ccc(F)cc2)c1 was tested. Which Potency did it give?
Its Potency is “inactive”.

How did the Potency turn out when CC1CCCN(CCCNC(=O)C2CCN(S(=O)(=O)N3CCC4(CC3)OCCO4)CC2)C1 (stereo not drawn) was run?
The Potency was inconclusive [inhibitor, full curve, poor fit].

Which Potency does the source give for CCc1ccc(C(=O)COC(=O)CNC(=O)c2cccs2)cc1 here?
The Potency was inconclusive [inhibitor, single point].

O=C(COc1ccccc1/C=C1\SC(=O)NC1=O)Nc1ccc(F)cc1 was tested. Which Potency did it give?
The Potency was inconclusive [inhibitor, partial curve, poor fit].

Which Potency does the source give for CC(C)=CCC[C@H](C)C[C@@H]1Cc2[nH][nH]c(=O)c2[C@H](c2ccc(F)cc2)O1 here?
Its Potency is inconclusive [inhibitor, partial curve].

How did the Potency turn out when O=C1CNC(=O)c2c(nc3n2CCC3)N1 was run?
Its Potency is inconclusive [inhibitor, single point].

For O=c1cc(CN2CCN(c3ccc(O)cc3)CC2)nc2scc(-c3ccccc3)n12, which Potency is on record?
The Potency was “inactive”.

How did the Potency turn out when Cc1ccc(C(=O)NCC(=O)NCCSc2ccc(Br)cc2)cc1 was run?
The Potency was inconclusive [inhibitor, single point].

For COc1ccc(OCC(O)CN(C2CCCCC2)C2CCCCC2)cc1 (stereo not drawn), which Potency is on record?
The Potency was “inactive”.

For COc1ccc(C(=O)O/N=C(\N)c2ccc(OC)c(OC)c2)cc1, which Potency is on record?
Its Potency is “inactive”.

For CN(CCC1CCOCC1)C(=O)C1CCC(=O)N(CCc2ccccc2)C1 (stereo not drawn), which Potency is on record?
Its Potency is “inactive”.

For CC(OC(=O)c1ccccc1Oc1ccccc1)C(=O)NC1CC1 (stereo not drawn), which Potency is on record?
Its Potency is inconclusive [inhibitor, single point].

Which Potency does the source give for Cc1ccc(C)c2nc3sc(C(=O)N4CCCc5ccccc54)c(N)c3cc12 here?
The Potency was “inactive”.

O=C1CC(=Nc2ccc([N+](=O)[O-])cc2)NN1c1c(Cl)cc(Cl)cc1Cl was tested. Which Potency did it give?
The Potency was inconclusive [inhibitor, single point].

With CCCCC1=CC2=CC(=O)C(C)(OC(=O)c3cccs3)C(=O)C2=CO1 (stereo not drawn) as the molecule, how does the Potency read?
The Potency was inconclusive [inhibitor, partial curve, poor fit].

Reference: PubChem BioAssay AID720709 (National Center for Advancing Translational Sciences (NCATS), 2013)
